In patent US20210380699A1 (published 2021) one finds Kd data, which are given here for 7 molecules.

Sequences and labels used below:
B1: 1D05 D1-6 ICK (other)
heavy: EVQLVESGGGLVQPGRSLRLSCAASGFTFDDYAMHWVRQVPGKGLEWVSGISWIRTGIGYADSVKGRFTIFRDNAKNSLYLQMNSLRAEDTALYYCAKDMKGSGTYGGWFDTWGQGTLVTVSS[human IgG1 constant region with L235A G237A (EU numbers) omitted]
light: [about 100 residues omitted]RTVAAPSVFIFPPSDEQLKSGTASVVCLLNNFYPREAKVQWKVDNALQSGNSQESVTEQDSKDSTYSLSSTLTLSKADYEKHKVYACEVTHQGLSSPVTKSFNRGECTKKTQLQLEHLLLDLQMILNGINNYKNPKLTRMLTFKFYMPKKATELKHLQCLEEELKPLEEVLNLAQSKNFHLRPRDLISNINVIVLELKGSETTFMCEYADETATIVEFLNRWITFCQSIISTLT
notes: immunocytokine, IL-2 variant on light chain C-terminus
B2: 1D05 D5-7 ICK (other)
heavy: B1 heavy
light: [about 100 residues omitted]RTVAAPSVFIFPPSDEQLKSGTASVVCLLNNFYPREAKVQWKVDNALQSGNSQESVTEQDSKDSTYSLSSTLTLSKADYEKHKVYACEVTHQGLSSPVTKSFNRGECAPTSKKTQLQLEHLLLDLQMILNGINNYKNPKLTRMLTFKFYMPKKATELKHLQCLEEELKPLEEVLNLAQSKNFHLRPRDLISNINVIVLELKGSETTFMCEYADETATIVEFLNRWITFCQSIISTLT
notes: immunocytokine, IL-2 variant on light chain C-terminus; also called 1D05 IC64 (D5-7)
B3: 1D05 D9-3 ICK (other)
heavy: B1 heavy
light: [about 100 residues omitted]RTVAAPSVFIFPPSDEQLKSGTASVVCLLNNFYPREAKVQWKVDNALQSGNSQESVTEQDSKDSTYSLSSTLTLSKADYEKHKVYACEVTHQGLSSPVTKSFNRGECAPTQLQLEHLLLDLQMILNGINNYKNPKLTRMLTFKFYMPKKATELKHLQCLEEELKPLEEVLNLAQSKNFHLRPRDLISNINVIVLELKGSETTFMCEYADETATIVEFLNRWITFCQSIISTLT
notes: as for B1
B4: 1D05 D9-8 ICK (other)
heavy: B1 heavy
light: [about 100 residues omitted]RTVAAPSVFIFPPSDEQLKSGTASVVCLLNNFYPREAKVQWKVDNALQSGNSQESVTEQDSKDSTYSLSSTLTLSKADYEKHKVYACEVTHQGLSSPVTKSFNRGECAPTSSSTTQLQLEHLLLDLQMILNGINNYKNPKLTRMLTFKFYMPKKATELKHLQCLEEELKPLEEVLNLAQSKNFHLRPRDLISNINVIVLELKGSETTFMCEYADETATIVEFLNRWITFCQSIISTLT
notes: as for B1
B5: 1D05 D4-8 ICK (other)
heavy: B1 heavy
light: [about 100 residues omitted]RTVAAPSVFIFPPSDEQLKSGTASVVCLLNNFYPREAKVQWKVDNALQSGNSQESVTEQDSKDSTYSLSSTLTLSKADYEKHKVYACEVTHQGLSSPVTKSFNRGECAPTKTQLQLEHLLLDLQMILNGINNYKNPKLTRMLTFKFYMPKKATELKHLQCLEEELKPLEEVLNLAQSKNFHLRPRDLISNINVIVLELKGSETTFMCEYADETATIVEFLNRWITFCQSIISTLT
notes: as for B1
B6: 1D05 D9-6 ICK (other)
heavy: B1 heavy
light: [about 100 residues omitted]RTVAAPSVFIFPPSDEQLKSGTASVVCLLNNFYPREAKVQWKVDNALQSGNSQESVTEQDSKDSTYSLSSTLTLSKADYEKHKVYACEVTHQGLSSPVTKSFNRGECAPTSSTQLQLEHLLLDLQMILNGINNYKNPKLTRMLTFKFYMPKKATELKHLQCLEEELKPLEEVLNLAQSKNFHLRPRDLISNINVIVLELKGSETTFMCEYADETATIVEFLNRWITFCQSIISTLT
notes: as for B1
B7: 1D05 D5-9 ICK (other)
heavy: B1 heavy
light: [about 100 residues omitted]RTVAAPSVFIFPPSDEQLKSGTASVVCLLNNFYPREAKVQWKVDNALQSGNSQESVTEQDSKDSTYSLSSTLTLSKADYEKHKVYACEVTHQGLSSPVTKSFNRGECAPTSTQLQLELLLDLQMILNGINNYKNPKLTRMLTFKFYMPKKATELKHLQCLEEELKPLEEVLNLAQSKNFHLRPRDLISNINVIVLELKGSETTFMCEYADETATIVEFLNRWITFCQSIISTLT
notes: immunocytokine, IL-2 variant on light chain C-terminus; also called 1D05 IC45 (D5-9)

The experiment deals with T1, Human PD-L1 His (human PD-L1 ECD with C-terminal His tag) (human, UniProt Q9NZQ7 fragment).
T1 construct: Biotinylated in ELISA and AlphaScreen assays; also called hPD-L1-his; biotinylated PD-L1 his
T1 sequence (Q9NZQ7 19-238 limits assumed): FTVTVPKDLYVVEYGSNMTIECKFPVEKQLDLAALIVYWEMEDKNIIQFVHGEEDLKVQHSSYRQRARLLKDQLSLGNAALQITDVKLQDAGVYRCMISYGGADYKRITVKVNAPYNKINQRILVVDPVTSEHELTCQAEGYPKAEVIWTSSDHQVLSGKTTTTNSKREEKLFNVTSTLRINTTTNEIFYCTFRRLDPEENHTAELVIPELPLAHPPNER
The experiment can be described thus: SPR 25C, antibody captured, PD-L1 analyte. On the procedure: Label-free surface plasmon resonance (SPR) analysis was carried out on the ProteOn XPR36 (BioRad) array SPR machine. An anti-human IgG capture surface was created on a GLC biosensor chip using amine coupling of an anti-human IgG from GE Healthcare. […] The assay was carried out at 25° C. using HBS-EP (Teknova H8022). Buffer alone was used to reference the binding sensorgrams. The data was analysed using the 1:1 model inherent to the ProteOn XPR36 analysis software.
Broadly, the Kd is the equilibrium constant for the complex coming apart. A high value points to weaker binding. Molecule B1 came in with a dissociation constant (Kd) of 0.211 nM.
To B2 belongs 0.214 nM.
To B3 belongs 0.171 nM; to B4, 0.225 nM.
The same measure for B5: 0.208 nM.
B6 came in with a Kd of 0.211 nM.
To B7 belongs 0.203 nM.
